± gives the standard deviation of the averaged measurements. Laboratory Escherichia coli strains with one amino-acid change in an essential protein, pooled on minimal glucose agar with carbenicillin or gentamicin at twice the control MIC (plus kanamycin and chloramphenicol for the plasmids), 48 h. Fold change of barcode share against drug-free plates; higher = less susceptible. Active = above 20 in both replicates (the paper's putatively resistant). '<' = one read or none on drug, '>' = one read or none on a drug-free plate. Shares are relative, so most strains fall below 1 when a few take over. Listed are strains with at least 15 reads on both drug-free plates, and hits; most hits rest on fewer reference reads. Replicate rank correlation about 0.5. Edits are read from barcodes.
Molecular target: Escherichia coli (laboratory strain)
Experiment: barcode share on antibiotic plates over drug-free plates; higher = less susceptible
Description: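 A pool of E. coli strains, each edited to carry one amino-acid change in an essential protein, was grown for 48 h on minimal glucose agar with or without antibiotic; strain barcodes were sequenced; mean of two replicates.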

[1] = antibiotic: carbenicillin, 2× MIC (3.1 µg/mL)
[2] = antibiotic: gentamicin, 2× MIC (MIC 0.45 µg/mL)

Protein | fold change of barcode share [1] | fold change of barcode share [2]
purA L75D (protein) MGNNVVVLGTQWGDEGKGKIVDLLTERAKYVVRYQGGHNAGHTLVINGEKTVLHLIPSGILRENVTSIIGNGVVDSPAALMKEMKELEDRGIPVRERLLLSEACPLILDYHVALDNAREKARGAKAIGTTGRGIGPAYEDKVARRGLRVGDLFDKETFAEKLKEVMEYHNFQLVNYYKAEAVDYQKVLDDTMAVADILTSMVVDVSDLLDQARQRGDFVMFEGAQGTLLDIDHGTYPYVTSSNTTAGGVATGSGLGPRYVDYVLGILKAYSTRVGAGPFPTELFDETGEFLCKQGNEFGATTGRRRRTGWLDTVAVRRAVQLNSLSGFCLTKLDVLDGLKEVKLCVAYRMPDGREVTTTPLAADDWKGVEPIYETMPGWSESTFGVKDRSGLPQAALNYIKRIEELTGVPIDIISTGPDRTETMILRDPFDA | 140 [active] | 
purA L75P (protein) MGNNVVVLGTQWGDEGKGKIVDLLTERAKYVVRYQGGHNAGHTLVINGEKTVLHLIPSGILRENVTSIIGNGVVPSPAALMKEMKELEDRGIPVRERLLLSEACPLILDYHVALDNAREKARGAKAIGTTGRGIGPAYEDKVARRGLRVGDLFDKETFAEKLKEVMEYHNFQLVNYYKAEAVDYQKVLDDTMAVADILTSMVVDVSDLLDQARQRGDFVMFEGAQGTLLDIDHGTYPYVTSSNTTAGGVATGSGLGPRYVDYVLGILKAYSTRVGAGPFPTELFDETGEFLCKQGNEFGATTGRRRRTGWLDTVAVRRAVQLNSLSGFCLTKLDVLDGLKEVKLCVAYRMPDGREVTTTPLAADDWKGVEPIYETMPGWSESTFGVKDRSGLPQAALNYIKRIEELTGVPIDIISTGPDRTETMILRDPFDA | 0.655 ± 0.012 | < 0.00455
purD V335A (protein) MKVLVIGNGGREHALAWKAAQSPLVETVFVAPGNAGTALEPALQNVAIGVTDIPALLDFAQNEKIDLTIVGPEAPLVKGVVDTFRAAGLKIFGPTAGAAQLEGSKAFTKDFLARHKIPTAEYQNFTEVEPALAYLREKGAPIVIKADGLAAGKGVIVAMTLEEAEAAVHDMLAGNAFGDAGHRIVIEEFLDGEEASFIVMVDGEHVLPMATSQDHKRVGDKDTGPNTGGMGAYSPAPVVTDDVHQRTMERIIWPTVKGMAAEGNTYTGFLYAGLMIDKQGNPKVIEFNCRFGDPETQPIMLRMKSDLVELCLAACESKLDEKTSEWDERASLGVAMAAGGYPGDYRTGDVIHGLPLEEVAGGKVFHAGTKLADDEQVVTNGGRVLCVTALGHTVAEAQKRAYALMTDIHWDDCFCRKDIGWRAIEREQN | 0.945 ± 0.3 | 0.00547 ± 0.0042
purD V335Q (protein) MKVLVIGNGGREHALAWKAAQSPLVETVFVAPGNAGTALEPALQNVAIGVTDIPALLDFAQNEKIDLTIVGPEAPLVKGVVDTFRAAGLKIFGPTAGAAQLEGSKAFTKDFLARHKIPTAEYQNFTEVEPALAYLREKGAPIVIKADGLAAGKGVIVAMTLEEAEAAVHDMLAGNAFGDAGHRIVIEEFLDGEEASFIVMVDGEHVLPMATSQDHKRVGDKDTGPNTGGMGAYSPAPVVTDDVHQRTMERIIWPTVKGMAAEGNTYTGFLYAGLMIDKQGNPKVIEFNCRFGDPETQPIMLRMKSDLVELCLAACESKLDEKTSEWDERASLGVQMAAGGYPGDYRTGDVIHGLPLEEVAGGKVFHAGTKLADDEQVVTNGGRVLCVTALGHTVAEAQKRAYALMTDIHWDDCFCRKDIGWRAIEREQN | 2.02 ± 0.48 | 0.0249 ± 0.028
purD V335D (protein) MKVLVIGNGGREHALAWKAAQSPLVETVFVAPGNAGTALEPALQNVAIGVTDIPALLDFAQNEKIDLTIVGPEAPLVKGVVDTFRAAGLKIFGPTAGAAQLEGSKAFTKDFLARHKIPTAEYQNFTEVEPALAYLREKGAPIVIKADGLAAGKGVIVAMTLEEAEAAVHDMLAGNAFGDAGHRIVIEEFLDGEEASFIVMVDGEHVLPMATSQDHKRVGDKDTGPNTGGMGAYSPAPVVTDDVHQRTMERIIWPTVKGMAAEGNTYTGFLYAGLMIDKQGNPKVIEFNCRFGDPETQPIMLRMKSDLVELCLAACESKLDEKTSEWDERASLGVDMAAGGYPGDYRTGDVIHGLPLEEVAGGKVFHAGTKLADDEQVVTNGGRVLCVTALGHTVAEAQKRAYALMTDIHWDDCFCRKDIGWRAIEREQN | 119 [active] | 
purD V335P (protein) MKVLVIGNGGREHALAWKAAQSPLVETVFVAPGNAGTALEPALQNVAIGVTDIPALLDFAQNEKIDLTIVGPEAPLVKGVVDTFRAAGLKIFGPTAGAAQLEGSKAFTKDFLARHKIPTAEYQNFTEVEPALAYLREKGAPIVIKADGLAAGKGVIVAMTLEEAEAAVHDMLAGNAFGDAGHRIVIEEFLDGEEASFIVMVDGEHVLPMATSQDHKRVGDKDTGPNTGGMGAYSPAPVVTDDVHQRTMERIIWPTVKGMAAEGNTYTGFLYAGLMIDKQGNPKVIEFNCRFGDPETQPIMLRMKSDLVELCLAACESKLDEKTSEWDERASLGVPMAAGGYPGDYRTGDVIHGLPLEEVAGGKVFHAGTKLADDEQVVTNGGRVLCVTALGHTVAEAQKRAYALMTDIHWDDCFCRKDIGWRAIEREQN | 94 [active] | 
purD V30A (protein) MKVLVIGNGGREHALAWKAAQSPLVETVFAAPGNAGTALEPALQNVAIGVTDIPALLDFAQNEKIDLTIVGPEAPLVKGVVDTFRAAGLKIFGPTAGAAQLEGSKAFTKDFLARHKIPTAEYQNFTEVEPALAYLREKGAPIVIKADGLAAGKGVIVAMTLEEAEAAVHDMLAGNAFGDAGHRIVIEEFLDGEEASFIVMVDGEHVLPMATSQDHKRVGDKDTGPNTGGMGAYSPAPVVTDDVHQRTMERIIWPTVKGMAAEGNTYTGFLYAGLMIDKQGNPKVIEFNCRFGDPETQPIMLRMKSDLVELCLAACESKLDEKTSEWDERASLGVVMAAGGYPGDYRTGDVIHGLPLEEVAGGKVFHAGTKLADDEQVVTNGGRVLCVTALGHTVAEAQKRAYALMTDIHWDDCFCRKDIGWRAIEREQN | 1.23 ± 0.17 | 0.0065249 ± 2.6e-07
purD V30W (protein) MKVLVIGNGGREHALAWKAAQSPLVETVFWAPGNAGTALEPALQNVAIGVTDIPALLDFAQNEKIDLTIVGPEAPLVKGVVDTFRAAGLKIFGPTAGAAQLEGSKAFTKDFLARHKIPTAEYQNFTEVEPALAYLREKGAPIVIKADGLAAGKGVIVAMTLEEAEAAVHDMLAGNAFGDAGHRIVIEEFLDGEEASFIVMVDGEHVLPMATSQDHKRVGDKDTGPNTGGMGAYSPAPVVTDDVHQRTMERIIWPTVKGMAAEGNTYTGFLYAGLMIDKQGNPKVIEFNCRFGDPETQPIMLRMKSDLVELCLAACESKLDEKTSEWDERASLGVVMAAGGYPGDYRTGDVIHGLPLEEVAGGKVFHAGTKLADDEQVVTNGGRVLCVTALGHTVAEAQKRAYALMTDIHWDDCFCRKDIGWRAIEREQN | 1.6718 ± 0.00082 | 
purD V30Q (protein) MKVLVIGNGGREHALAWKAAQSPLVETVFQAPGNAGTALEPALQNVAIGVTDIPALLDFAQNEKIDLTIVGPEAPLVKGVVDTFRAAGLKIFGPTAGAAQLEGSKAFTKDFLARHKIPTAEYQNFTEVEPALAYLREKGAPIVIKADGLAAGKGVIVAMTLEEAEAAVHDMLAGNAFGDAGHRIVIEEFLDGEEASFIVMVDGEHVLPMATSQDHKRVGDKDTGPNTGGMGAYSPAPVVTDDVHQRTMERIIWPTVKGMAAEGNTYTGFLYAGLMIDKQGNPKVIEFNCRFGDPETQPIMLRMKSDLVELCLAACESKLDEKTSEWDERASLGVVMAAGGYPGDYRTGDVIHGLPLEEVAGGKVFHAGTKLADDEQVVTNGGRVLCVTALGHTVAEAQKRAYALMTDIHWDDCFCRKDIGWRAIEREQN | 1.09 ± 0.061 | 0.00802 ± 0.0012
purD V30D (protein) MKVLVIGNGGREHALAWKAAQSPLVETVFDAPGNAGTALEPALQNVAIGVTDIPALLDFAQNEKIDLTIVGPEAPLVKGVVDTFRAAGLKIFGPTAGAAQLEGSKAFTKDFLARHKIPTAEYQNFTEVEPALAYLREKGAPIVIKADGLAAGKGVIVAMTLEEAEAAVHDMLAGNAFGDAGHRIVIEEFLDGEEASFIVMVDGEHVLPMATSQDHKRVGDKDTGPNTGGMGAYSPAPVVTDDVHQRTMERIIWPTVKGMAAEGNTYTGFLYAGLMIDKQGNPKVIEFNCRFGDPETQPIMLRMKSDLVELCLAACESKLDEKTSEWDERASLGVVMAAGGYPGDYRTGDVIHGLPLEEVAGGKVFHAGTKLADDEQVVTNGGRVLCVTALGHTVAEAQKRAYALMTDIHWDDCFCRKDIGWRAIEREQN | 101 [active] | 
purD V30P (protein) MKVLVIGNGGREHALAWKAAQSPLVETVFPAPGNAGTALEPALQNVAIGVTDIPALLDFAQNEKIDLTIVGPEAPLVKGVVDTFRAAGLKIFGPTAGAAQLEGSKAFTKDFLARHKIPTAEYQNFTEVEPALAYLREKGAPIVIKADGLAAGKGVIVAMTLEEAEAAVHDMLAGNAFGDAGHRIVIEEFLDGEEASFIVMVDGEHVLPMATSQDHKRVGDKDTGPNTGGMGAYSPAPVVTDDVHQRTMERIIWPTVKGMAAEGNTYTGFLYAGLMIDKQGNPKVIEFNCRFGDPETQPIMLRMKSDLVELCLAACESKLDEKTSEWDERASLGVVMAAGGYPGDYRTGDVIHGLPLEEVAGGKVFHAGTKLADDEQVVTNGGRVLCVTALGHTVAEAQKRAYALMTDIHWDDCFCRKDIGWRAIEREQN | 76.9 [active] | 
purD L270A (protein) MKVLVIGNGGREHALAWKAAQSPLVETVFVAPGNAGTALEPALQNVAIGVTDIPALLDFAQNEKIDLTIVGPEAPLVKGVVDTFRAAGLKIFGPTAGAAQLEGSKAFTKDFLARHKIPTAEYQNFTEVEPALAYLREKGAPIVIKADGLAAGKGVIVAMTLEEAEAAVHDMLAGNAFGDAGHRIVIEEFLDGEEASFIVMVDGEHVLPMATSQDHKRVGDKDTGPNTGGMGAYSPAPVVTDDVHQRTMERIIWPTVKGMAAEGNTYTGFAYAGLMIDKQGNPKVIEFNCRFGDPETQPIMLRMKSDLVELCLAACESKLDEKTSEWDERASLGVVMAAGGYPGDYRTGDVIHGLPLEEVAGGKVFHAGTKLADDEQVVTNGGRVLCVTALGHTVAEAQKRAYALMTDIHWDDCFCRKDIGWRAIEREQN | 62.2 [active] | 
